According to article PMC12136788:
The other results are listed elsewhere or left out.

B1: chr11:64204363:64204470:+|3pUTR|ENSG00000168439|unk|total|mutant (ssRNA)
RNA: GGGAGUUCUACAGUCCGACGAUCGCCCUCGAGUUCCAUGUCUCUUUCCCCUGCCCCCCGUUGCUGUCUCGGCUGCUCUCCCACCGUUGGUUUUUUUUUUAUUUGGGGCAGUGGGCAUGUUAUGGGGAGGGGAGGGGGUUCUUCCAACAGAGGAUUGAGCAUCA
B2: chr1:225789428:225789553:+|3pUTR|ENSG00000143742|unk|FALSE|unique (ssRNA)
RNA: GGGAGUUCUACAGUCCGACGAUCUUAGAGAAAGUGUUGGGACAGAAAGUACUUUAUGUAACUAAGUGGGCUGUUCAGAAGCUUAGAGGUCAUUUUUUGUAAUUUUCUUUUUAAUUACUUUAGAGAGCUAGGGAUGCAAAUGUUCAACAGAGGAUUGAGCAUCA
B3: ENSG00000130816:stop:overlap|stop_codon|ENSG00000130816|stop_codon|NA|stop_codon (ssRNA)
RNA: GGGAGUUCUACAGUCCGACGAUCUGGCCAAAGCCCGAGAGAGUGCCUCAGCUAAAAUAAAGGAGGAGGAAGCUGCUAAGGACUAGUUCUGCCCUCCCGUCACCCCUGUUUCUGGCACCAGGAAUCCCCAACAUGCACUGAUGUCAACAGAGGAUUGAGCAUCA
B4: chr2:53865134:53865235:-|3pUTR|ENSG00000068878|unk|total|mutant (ssRNA)
RNA: GGGAGUUCUACAGUCCGACGAUCGUCCUGUCAUUUCAUUCAUCUCAAAUUAUUUUGAAUUCUUCCCAAAUGGCUGCUGGAUUCCGGUGGUAACCGGGGCUGUGGGCCAUAAAUCUGAAGCCUUGAGAACCUUGGGUCUGGAGACAACAGAGGAUUGAGCAUCA
B5: chr11:85659139:85659240:-|3pUTR|ENSG00000137504|msi1|total|mutant (ssRNA)
RNA: GGGAGUUCUACAGUCCGACGAUCGUCUGAUUCCGUAAAAUUUUAAAGCUAAAUAAUCUGAUGACUCUUGAAAGUUUAAUUGGCCGUAUGACAUUUAUGUUUUUUUCCCCCAGACUCACAGCCAAUACAAAGUUUUGAGACUCCCAACAGAGGAUUGAGCAUCA
B6: chr11:104891169:104891404:-|CDS|ENSG00000204403|control|control|control (ssRNA)
RNA: GGGAGUUCUACAGUCCGACGAUCUUUGCUGCUCACCCAGAGCACCAGUCCUCAGACAGCACAUUCCUGGUGUUUAUGUCACAUAGCAUCCUGAAUGGAAUCUGUGGGACCAAGCACUGGGAUCAAGAGCCAGAUGUUCUUCACCAACAGAGGAUUGAGCAUCA

Each binder was assayed against MSI1 full-length (mouse, UniProt Q61474 1-362) (assay: nsRBNS (natural sequence RNA bind-n-seq); RBNS binding buffer (assumed for nsRBNS): 25 mM Tris pH 7.5, 150 mM KCl, 3 mM MgCl2, 0.01% Triton X-100, 500 ug/ml BSA, 20 U/ml SUPERase-In, 4 C; UNK is unkempt and MSI1 is Musashi-1; names of the RNAs are library labels; protein concentration not given here; high values mean tight binding).
Chain of UniProt Q61474 (Q61474 whole entry): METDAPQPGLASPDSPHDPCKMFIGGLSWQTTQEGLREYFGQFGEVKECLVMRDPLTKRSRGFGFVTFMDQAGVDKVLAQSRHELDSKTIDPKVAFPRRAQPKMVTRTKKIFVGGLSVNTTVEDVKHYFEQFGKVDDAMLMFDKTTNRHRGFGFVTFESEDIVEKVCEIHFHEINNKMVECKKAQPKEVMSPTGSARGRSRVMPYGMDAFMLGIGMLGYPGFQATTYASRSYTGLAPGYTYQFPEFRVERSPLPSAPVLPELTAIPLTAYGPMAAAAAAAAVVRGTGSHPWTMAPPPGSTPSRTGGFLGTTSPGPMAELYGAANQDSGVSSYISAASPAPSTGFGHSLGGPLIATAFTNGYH

Binder	binding signal [enrichment R]
B1	0.741
B2	1.67
B3	4.63
B4	0.372
B5	0.888
B6	0.277
